From PubChem BioAssay AID1956 (SRMLSC, 2009)
Some of the results follow. Further columns of the screen follow, without active or inactive calls.

assay: enhancers of HSV replication in host cells, fold increase, host cell viability (AID 1956); conditions: HSV replication augmentation in cells; fold increase: measured here: primary screen fold increase 10 uM, at 10 µM, stronger effect = higher value; viability: measured here: host cell viability series, at 25 µM, stronger effect = lower value; note: tested in PC3 cells

| SMILES | fold increase | viability |
| --- | --- | --- |
| CN1/C(=C\C=C2/C(=O)Oc3ccccc3C2=O)C(C)(C)c2ccccc21 | 7.78 | 101% |
| COc1ccc(C2CC(=O)C=C(NNS(=O)(=O)c3ccc(C)cc3)C2)cc1 (stereo not given) | 1.32 | – |
| CC(=Nc1cccc(O)c1)c1sc2ccccc2c1O | 2.28 | 79.7% |
| CC(=O)c1sc(N/N=C\c2cccc(Br)c2)nc1C | 3.58 | – |
| CN(C)c1ccc(/C=C/c2ccc3c4ccccc4ccc3[n+]2-c2ccccc2)cc1 | 1.43 | 2.17% |
| CN1CCc2c(sc(/N=C/c3cccs3)c2C(N)=O)C1 | 1.4 | 99% |
| COc1ccc(/C=C/C(=O)C2C(=O)C=C(C)OC2=O)cc1O (stereo not given) | 1.51 | – |
| CN1CCC2(CC1)C1CN(C)CC=C1C(C#N)=C(N)C2(C#N)C#N (stereo not given) | 1.78 | 102% |
| COc1ccccc1-[n+]1c(C)cc(/C=C2\Sc3ccccc3N2C)cc1C | 4.85 | – |
| CCN1C/C(=C/c2ccc(N3CCOCC3)cc2)C(=O)/C(=C/c2ccc(N3CCOCC3)cc2)C1 | 3.85 | 62.8% |
| O=C(CCN1C(=O)C2CC=C(Cl)CC2C1=O)NC1CCCCC1 (stereo not given) | 1.35 | 98.5% |
| Cc1c2ccccc2nc2c(F)c(N(C)C)c(F)c(F)c12 | 1.41 | 88.3% |
| Cn1c(=O)c(NCCO)c2c3c(cccc31)C(=O)c1ccccc1-2 | 15.1 | 72.8% |
| CCc1cc(CNC(=O)CC2C(=O)NCCN2Cc2c(F)cccc2Cl)on1 (stereo not given) | 1.78 | 95.8% |
| CCOc1ccc(NC2OCC(O)C(O)C2O)c([N+](=O)[O-])c1 (stereo not given) | 1.47 | 83.4% |
| Cc1ccc(N=C2NC(=O)/C(=C/c3cn(C)c4ccccc34)S2)cc1C | 3.85 | 71% |
| O=C(CCCCCNC(=O)c1ccccc1)C[N+](=O)[O-] | 1.32 | – |
| COc1cc2cc(CN(Cc3nnnn3Cc3ccco3)C3CCCCC3)c(=O)[nH]c2cc1OC | 1.32 | 93% |
| FC(F)Sc1ccc(NC(=S)NC2CCC(NC(=S)Nc3ccc(SC(F)F)cc3)CC2)cc1 (stereo not given) | 1.6 | – |
| C=CCN1C(=O)/C(=C/c2ccc(O)cc2)S/C1=N/c1nccs1 | 7.27 | 73.7% |
| C[C@H](NC(=O)OCc1ccccc1)C(=O)NNC(=O)[C@H](Cc1ccccc1)NC(=O)OC(C)(C)C | 1.34 | 94.4% |
| COc1cccc(-c2cc3c(=O)n(-c4ccccc4)c(=S)[nH]c3s2)c1 | 1.49 | – |
| N#Cc1c(-c2ccc(F)cc2)cc(C2CC2)nc1SCC(=O)c1cccs1 | 2.52 | 94.4% |
| O=c1cc(CO)oc(C(Nc2ccccn2)c2ccc(C(F)(F)F)cc2)c1O (stereo not given) | 1.1 | 92.2% |

| SMILES | fold increase | viability |
| --- | --- | --- |
| CC(=Nc1ccc(C)cc1)c1sc2ccccc2c1O | 2.74 | 86% |
| CCCN1C=CC(=C/C=C(\C#N)C(=O)OCC)C=C1 | 2.39 | – |
| CN(C)/C=C1\C=C2C(=O)c3ccccc3N2C1=O | 8.56 | 95.1% |
| NC(=S)Nc1cccc(Cl)c1 | 1.34 | 99.3% |
| Cc1c(C(=O)OC2CCC(C)CC2)[nH]c2c1C(=O)CCC2 (stereo not given) | 1.36 | 85.6% |
| COc1ccc(-n2c(Cc3cccn3C)nnc2SCC(=O)Nc2nccs2)cc1 | 1.33 | 94.6% |
| CCN(CC)c1ccc(/C=C2\CCC(/C=N/NC(=O)c3ccc(=O)n(C)c3)=C2N2CCOCC2)cc1 | 1.63 | 96.7% |
| CCCCN(C(=O)NC(=O)Nc1nc2ccc(OC)cc2s1)S(C)(=O)=O | 1.33 | 98.1% |
| COc1ccc(N=Cc2sc(O)c3ccccc23)cc1 | 3.07 | 88.2% |
| O=S(=O)(c1ccc(Cl)nc1)N(Cc1ccccc1)Cc1ccccc1 | 1.34 | 94.6% |
| CCN(CC)c1ccc(/C=N/Nc2nc(C)cc(C)n2)cc1 | 1.49 | 43.4% |
| CCCN1CC=C2C(C#N)=C(N)C(C#N)(C#N)C(c3cc(OC)ccc3OC)C2C1 (stereo not given) | 1.37 | 87% |
| Cc1ccc(N=C2NC(=O)/C(=C/C=C/c3ccco3)S2)cc1 | 1.33 | 89.9% |
| Nc1ncc(Br)cc1N=Cc1ccccc1 | 1.33 | – |
| CCOc1cc(/C=N\Nc2ccc([N+](=O)[O-])cc2)ccc1OCC(=O)Nc1ccc(C)c(C)c1 | 1.56 | 90.8% |
| CCN(CC)S(=O)(=O)c1cc(C(=O)Nc2cccnc2)ccc1Cl | 1.47 | 93.3% |
| Cc1ccccc1Oc1ncccc1C(=O)/C(C#N)=C/N(C)C | 1.45 | 95.4% |
| C=CCn1c(=O)/c(=C2/Sc3ccccc3N2CC)s/c1=C1/C(=O)NN=C1C | 1.83 | 88.6% |
| COc1ccccc1N1C(=O)CC(Nc2ccc(N3CCOCC3)cc2)C1=O (stereo not given) | 1.3 | – |
| Cc1ccc(N2C(=O)c3cccc4c([N+](=O)[O-])ccc(c34)C2=O)c2cccnc12 | 5.23 | 45.6% |
| CCN(C(=O)CN1CCc2ccccc21)c1c(N)n(Cc2ccccc2)c(=O)[nH]c1=O | 1.58 | 97% |
| O=C(C1=NN(c2ccccc2)C2C(=O)N(c3ccc(Cl)cc3)C(=O)C12)c1ccccc1 (stereo not given) | 4.08 | 94.7% |
| Cc1ccc(S(=O)(=O)N(CC(=O)NCCSC2CCCCC2)c2ccccc2F)cc1 | 1.51 | 91.2% |
| O=C(CN1C(=O)C2CCCCC2C1=O)N1CCN(c2ncccn2)CC1 (stereo not given) | 1.32 | – |

| SMILES | fold increase | viability |
| --- | --- | --- |
| Cc1ccc(-c2c[n+]3c(n2-c2ccccc2)CCC3)cc1 | 1.32 | – |
| COc1ccc(C2C=C(c3ccc(Br)s3)Nc3ncnn32)cc1OC (stereo not given) | 3.36 | – |
| CC(=O)Oc1c(-c2ccco2)oc2ccccc2c1=O | 3.37 | – |
| CN1/C(=c2/s/c(=C3/C(=O)N(c4ccccc4)NC3=Nc3ccccc3)n(C)c2=O)C(C)(C)c2ccccc21 | 1.83 | 93.8% |
| Cc1ccc(-n2nc3c(c2NC(=O)c2ccc(OC(C)C)cc2)CS(=O)C3)cc1 (stereo not given) | 1.32 | 96.4% |
| CCCCCCN1C=CC=C/C1=C/C=C(C#N)C#N | 2.99 | – |
| Cc1nn(-c2cc(N3CCCC3)ccc2[N+](=O)[O-])c(=O)c2ccccc12 | 1.25 | – |
| COc1cccc(/C=N/NC(=S)Nc2cccc(C(=O)O)c2)c1O | 1.34 | – |
| CCN1CCN(c2c(/C=C3\SC(=S)N(Cc4ccco4)C3=O)c(C)c(C#N)c(=O)n2C)CC1 | 3.54 | 86.8% |
| COc1ccc(CCNC(=O)CSc2nc3ccccc3o2)cc1OC | 1.45 | 99.6% |
| CCCCC(=O)OCC(=O)Nc1ccc(SC(F)F)cc1 | 1.37 | 96.4% |
| Cc1oc(C)c2c(=O)ccc3c(c12)OC(N)=C(C#N)C3c1ccccc1Cl (stereo not given) | 1.64 | 92.3% |
| O=C1OC2(c3ccccc3)C3CCCC2C13 | 1.46 | 101% |
| CCc1cccc(Oc2nn[nH]n2)c1 | 1.39 | 92.1% |
| CCCCc1cc(=O)oc2cc(OCc3cc(OC)c(OC)c(OC)c3)c(Cl)cc12 | 1.11 | – |
| CCC(NS(=O)(=O)c1ccc(C)cc1)C(=O)N1CCN(c2ccccn2)CC1 (stereo not given) | 1.33 | 95.4% |
| CCOCCCNC(=S)N1CCCN(c2nc3cc(C)c(C)cc3cc2C#N)CC1 | 1.53 | 87% |
| COc1ccc(-c2cc(-c3cccs3)c(C#N)c(SCC(=O)NCc3ccccc3)n2)cc1 | 1.1 | – |
| O=C(CSc1cnc2ccccc2n1)c1ccc(F)cc1 | 1.32 | – |
| N=c1c2c(ncn1CCCO)Oc1cc(O)ccc1C2c1ccccc1 (stereo not given) | 1.45 | 92.8% |
| COc1ccc(OCCSc2nnc3c(Cl)cc(Cl)cn23)cc1 | 1.39 | 98.4% |
| CN(C)CCCn1c(-c2ccccc2)nc(=S)c2c1CCCC2 | 1.5 | 96.9% |
| CCN(CC)CCCOC(=O)c1ccc(OC)cc1O | 1.34 | 98.5% |
| O=C(CSC1c2ccccc2C(=O)N1c1ccccc1)N1CCOCC1 (stereo not given) | 1.68 | 91.5% |

| SMILES | fold increase | viability |
| --- | --- | --- |
| CN(C)c1ccc(C2C=C(c3ccc(Cl)cc3OC(F)F)Nc3ncnn32)cc1 (stereo not given) | 4.51 | 46.6% |
| CCOC(=O)CNC(=O)c1sc2ncnc(N3CCc4ccccc4C3)c2c1C | 1.34 | 90.2% |
| O=C(NC1CCCC1)C(c1ccncc1)N(Cc1ccccc1)C(=O)Cc1cccs1 (stereo not given) | 1.34 | 107% |
| C=CCn1c(N)c(-c2nc3ccccc3n2C)sc1=S | 1.36 | 90.1% |
| O=S(=O)(Nc1nc2ccccc2nc1-[n+]1cccc(N=C([O-])c2ccccc2Cl)c1)c1ccccc1 | 3 | 87.1% |
| Cc1ccc(C(=O)CSc2nc(-c3ccccc3)ccc2C#N)cc1 | 3.31 | 90% |
| CC1Oc2ccccc2N(CC(=O)Nc2ccc3c(c2)OCO3)C1=O (stereo not given) | 1.34 | 91.2% |
| CCCc1c(C(=O)O)cnn1-c1ccc(Cl)cc1 | 1.39 | 99.2% |
| COc1ccc(/C=N\NC(=S)SCN2C(=O)C3CCC(C)(C2=O)C3(C)C)cc1 (stereo not given) | 1.04 | – |
| Cc1cc(CNC(=O)[C@H]2C[C@@H]2[C@H](NP(=O)(c2ccccc2)c2ccccc2)c2ccccc2)nn1C | 1.43 | 104% |
| COC(=O)CN1C(=O)S/C(=C/c2ccc(N3CCCCC3)o2)C1=O | 1.64 | 94.3% |
| Cc1n[nH]c(C)c1N1C(=O)c2cccc3c(N4CCCCCC4)ccc(c23)C1=O | 7.74 | 86.6% |
| Nc1cnccc1C(=O)O | 1.49 | – |
| O=C(NCc1ccc2c(c1)OCO2)C1CC(c2ccccc2O)=NO1 (stereo not given) | 1.37 | 96.6% |
| Cc1nn2c(-c3cccc(NC(=O)CSc4nc5ccccc5o4)c3)nnc2c2ccccc12 | 1 | – |
| Cc1cc(NC(=O)/C(C#N)=C/c2ccco2)n(-c2ccccc2)n1 | 1.37 | 104% |
| CCN1/C(=C/c2ccc3ccc(C)cc3[n+]2CC)Sc2ccccc21 | 5.71 | 45.2% |
| N#CC1=C(N)C(C#N)(C#N)[C@H](c2ccoc2)[C@H]2CN(Cc3ccccc3)CC=C12 | 2.27 | – |
| C=CCN1C(=O)/C(=C\C=C2\N(C)c3ccccc3C2(C)C)SC1=S | 7.61 | 99.2% |
| O=c1oc2ccc(Br)cc2cc1-c1nc2ccccc2o1 | 2.49 | 95.1% |
| CCOC(=O)c1cnn(-c2ccc(NS(=O)(=O)c3ccc(Cl)cc3)cc2)c1C(F)(F)F | 1.34 | 98.5% |
| C=CC[n+]1c(/C=C2\C=Cc3cc(C)ccc3N2CC)ccc2ccccc21 | 1.61 | 30.4% |
| O=[N+]([O-])c1ccc(N2CCN(S(=O)(=O)c3ccc(Cl)cc3)CC2)cc1NCc1cccnc1 | 1.14 | – |
